{"source": "PubChem BioAssay AID1460", "about": "(National Center for Advancing Translational Sciences (NCATS), 2008)", "note": "The whole screen tested about 270,000 compounds, of which about 5,800 (2.1%) were called active. Inconclusive results, whose numbers are uncertain, are shown with a selection of clear calls. The call rests on the fitted dose curve; in most records, active means well fitted inhibition curve with a large enough effect; inconclusive means small, poorly fitted or top-dose-only effect; inactive means flat fitted curve, though single readings scatter. A potency beside an inconclusive call is a rough fit, not a confirmed value. On the % scale 0 is the no-effect control and ±100 the full control effect; potency means the concentration at half of the fitted maximal effect; tags describe the fitted curve by direction and shape."}
{"target": "Microtubule-associated protein tau (Homo sapiens) (UniProt P10636)", "sequence (P10636 whole entry, looked up)": "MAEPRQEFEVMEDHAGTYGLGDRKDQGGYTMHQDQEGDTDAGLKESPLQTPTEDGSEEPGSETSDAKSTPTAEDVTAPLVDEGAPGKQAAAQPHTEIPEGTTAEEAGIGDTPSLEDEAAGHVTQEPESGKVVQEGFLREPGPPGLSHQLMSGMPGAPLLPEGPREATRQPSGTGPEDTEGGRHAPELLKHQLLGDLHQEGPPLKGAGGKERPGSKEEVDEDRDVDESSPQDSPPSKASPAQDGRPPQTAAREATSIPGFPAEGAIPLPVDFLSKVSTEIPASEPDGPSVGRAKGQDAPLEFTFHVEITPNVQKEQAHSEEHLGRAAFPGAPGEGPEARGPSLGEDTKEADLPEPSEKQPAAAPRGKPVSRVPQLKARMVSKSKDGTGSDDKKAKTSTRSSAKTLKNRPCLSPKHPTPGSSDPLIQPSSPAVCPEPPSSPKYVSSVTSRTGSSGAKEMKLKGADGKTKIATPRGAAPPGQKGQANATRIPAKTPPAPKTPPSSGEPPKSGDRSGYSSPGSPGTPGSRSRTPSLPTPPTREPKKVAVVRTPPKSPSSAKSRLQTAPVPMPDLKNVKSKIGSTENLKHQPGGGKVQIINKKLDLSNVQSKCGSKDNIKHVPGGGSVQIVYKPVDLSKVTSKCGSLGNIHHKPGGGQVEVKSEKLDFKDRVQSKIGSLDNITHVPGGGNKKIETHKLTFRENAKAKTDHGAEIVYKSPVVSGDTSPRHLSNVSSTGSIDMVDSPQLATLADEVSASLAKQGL", "assay": "qHTS for Inhibitors of Tau Fibril Formation, Thioflavin T Binding; further: nearly all actives have a fitted effect of over 55% in size", "conditions": "recombinant tau K18 P301L, heparin-induced fibrillization, ThT fluorescence; series mostly up to 57.4 µM; activity, negative = inhibition: at the top concentration", "summary_of_the_method": "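Fibril formation assay: tau K18 P301L at 15 uM with trace Alexa 594 label, heparin inducer 20 uM, pH 7 sodium acetate buffer, 37 C for 6 hr; endpoint ThT signal.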"}
{"smiles": "c1ccc(OCCOCCN2CCN(C(c3ccccc3)c3ccccc3)CC2)cc1", "Potency": "inconclusive: 20 µM [inhibitor, single point]"}
{"smiles": "CCOC(=O)C(NC(C)=O)(Nc1ccc(F)cc1)C(F)(F)F", "note": "(stereo not given)", "Potency": "inconclusive: 31.6 µM [inhibitor, partial curve]"}
{"smiles": "COc1ccc2[nH]c(C)c(CCN(Cc3cccs3)C(=S)Nc3ccccc3)c2c1", "Potency": "inconclusive: 12.6 µM [inhibitor, partial curve]"}
{"smiles": "CC(=O)N(C1=C(N2CCOCC2)C(=O)c2ccccc2C1=O)c1ccc(C(=O)O)cc1", "Potency": "active: 14.1 µM"}
{"smiles": "CCOC(=O)c1c(-c2ccc(C)cc2)csc1/N=C/N(C)C", "Potency": "inconclusive: 28.2 µM [inhibitor, single point]"}
{"smiles": "Cc1ccc(/C=C/C(=O)NCc2ccco2)o1", "Potency": "inconclusive: 22.4 µM [inhibitor, partial curve]"}
{"smiles": "O=[N+]([O-])c1ccc(N=NN(CCO)CCO)cc1", "Potency": "inconclusive: 39.8 µM [inhibitor, single point]"}
{"smiles": "COc1ccc(C)c2sc(=NC(=O)c3cccc(N4C(=O)CCC4=O)c3)n(C)c12", "Potency": "inconclusive: 1.41 µM [inhibitor, partial curve]"}
{"smiles": "CCOC(=O)Cc1cc(-c2ccc(O)cc2)nc2ccc3ccccc3c12", "activity, negative = inhibition": "inactive: -12.9%"}
{"smiles": "Cc1cc(C)c(NC(=O)C2CCN(c3nc4ccccc4n4cccc34)CC2)c(C)c1", "Potency": "inconclusive: 14.1 µM [inhibitor, partial curve]"}
{"smiles": "COC(=O)c1c(NC(=O)c2ccc(S(=O)(=O)N3CCC(C)CC3)cc2)sc2c1CCN(C)C2", "Potency": "inconclusive: 39.8 µM [inhibitor, single point]"}
{"smiles": "COc1cc2ccccc2cc1C(=O)Nc1cccc(-c2nc3cc(C)c(C)cc3o2)c1", "activity, negative = inhibition": "inactive: -13.8%"}
{"smiles": "CC1Cc2ccccc2N1C(=O)Cn1cnc2ccccc21", "note": "(stereo not given)", "activity, negative = inhibition": "inactive: 0.61%"}
{"smiles": "Cn1c2c(c(=O)n(C)c1=O)NC1(N2)C(=O)Nc2ccccc21", "note": "(stereo not given)", "Potency": "inconclusive: 31.6 µM [inhibitor, single point]"}
{"smiles": "COc1ccc2cc(CN(CCCN3CCOCC3)Cc3nnnn3C3CCCCC3)c(=O)[nH]c2c1", "activity, negative = inhibition": "inactive: -11.6%"}
{"smiles": "CCOC(=O)C1CCN(C(C)=C2C(=O)c3ccccc3C2=O)CC1", "Potency": "inconclusive: 17.8 µM [inhibitor, partial curve]"}
{"smiles": "Clc1cncc(Cl)c1NNc1c2ccccc2nc2ccccc12", "Potency": "inconclusive: 7.94 µM [inhibitor, partial curve]"}
{"smiles": "O=S(=O)(NNc1ccc(Cl)nn1)c1ccc(F)cc1", "Potency": "inconclusive: 14.1 µM [inhibitor, partial curve]"}
{"smiles": "Cc1nnc(SCC2=C(C(=O)O)N3C(=O)C(NC(=O)c4cccc(F)c4F)C3SC2)s1", "note": "(stereo not given)", "Potency": "inconclusive: 20 µM [inhibitor, partial curve]"}
{"smiles": "O=[N+]([O-])c1ccc(N2CCN(c3nc(-c4ccc(Cl)cc4)cs3)CC2)cc1", "Potency": "inconclusive: 3.98 µM [inhibitor, full curve]"}
{"smiles": "O=C(CSc1ccc2ccccc2c1)N1CCN(c2ccc(O)cc2)CC1", "Potency": "inconclusive: 10 µM [inhibitor, partial curve]"}
{"smiles": "COc1ccc(N2CCN(c3ncnc4c3cnn4C)CC2)cc1", "Potency": "inconclusive: 11.2 µM [inhibitor, partial curve]"}
{"smiles": "COc1cccc(NC(=O)C2CCCN(S(=O)(=O)c3cn(C(C)C)cn3)C2)c1", "note": "(stereo not given)", "activity, negative = inhibition": "inactive: -1.82%"}
{"smiles": "Cc1ccccc1OCC(=O)OC(C)CN1CCN(C)CC1", "note": "(stereo not given)", "activity, negative = inhibition": "inactive: -3.17%"}
{"smiles": "CCOc1ccc(CCNC(=O)c2cc3cccc4c3n2CCS4)cc1", "Potency": "inconclusive: 15.8 µM [inhibitor, partial curve]"}
{"smiles": "COC(=O)c1c(-c2ccc(Cl)cc2)noc1N1CCN(c2cc(C)ccc2C)CC1", "activity, negative = inhibition": "inactive: -4.55%"}
{"smiles": "CCOc1cccc(NC(=O)C2CC(=O)N(CC)C(=Nc3ccc(F)cc3)S2)c1", "note": "(stereo not given)", "activity, negative = inhibition": "inactive: 7.75%"}
{"smiles": "COc1ccccc1CNc1ncncc1-c1ccccc1C", "activity, negative = inhibition": "inactive: -21.4%"}
{"smiles": "Cc1ccc(NC(=O)/C(C#N)=C/c2ccc(-c3ccc(Cl)c(C(=O)O)c3)o2)cc1C", "Potency": "active: 4.47 µM"}
{"smiles": "CCN(CC)S(=O)(=O)c1ccc2c(c1)N(CC(=O)Nc1ccccc1F)C(=O)C1CCCN21", "note": "(stereo not given)", "activity, negative = inhibition": "inactive: -6.79%"}
{"smiles": "CC(C)(C)c1ccc(/C=C/C(=O)Nc2ccc(S(N)(=O)=O)cc2)cc1", "activity, negative = inhibition": "inactive: 9.93%"}
{"smiles": "CCCC(=O)n1nc(-c2cccnc2)nc1NCc1ccc(OC)cc1", "Potency": "inconclusive: 31.6 µM [inhibitor, single point]"}
{"smiles": "CCN(CC)C(=O)CSc1nc(-c2ccc(C)cc2)nc2c1COC(C)(C)C2", "Potency": "inconclusive: 15.8 µM [inhibitor, partial curve]"}
{"smiles": "COc1ccc(C(=O)Nc2cc3c(cc2N2CCCC2)n(C)c(=O)c(=O)n3C)cc1OC", "Potency": "inconclusive: 20 µM [inhibitor, partial curve]"}
{"smiles": "Cc1nn(CCCC(=O)NCc2ccccc2)c(=O)c2cc3sccc3n12", "activity, negative = inhibition": "inactive: 11.3%"}
{"smiles": "CC(C)(C)OC(=O)N1CCC(c2c(C(=O)NCc3ccco3)cnn2-c2ccccc2Cl)CC1", "Potency": "inconclusive: 15.8 µM [inhibitor, partial curve]"}
{"smiles": "CCOC(=O)c1[nH]c2ccccc2c1NC(=O)Nc1ccc(OC)cc1", "activity, negative = inhibition": "inactive: -18.6%"}
{"smiles": "Nc1c(N2CCN(c3ccccc3)CC2)c2ccccc2oc1=O", "Potency": "inconclusive: 25.1 µM [inhibitor, partial curve]"}
{"smiles": "Cn1c(O)c(N=NC(=O)c2cc(-c3cccs3)nc3ccccc23)c2ccccc21", "Potency": "inconclusive: 20 µM [inhibitor, single point]"}
{"smiles": "Brc1ccc(-c2nc3ccccc3s2)s1", "Potency": "inconclusive: 20 µM [inhibitor, single point]"}
{"smiles": "CCc1ccc(C2CC(c3ccc(F)cc3)Nc3nc(N)nn32)cc1", "note": "(stereo not given)", "Potency": "inconclusive: 17.8 µM [inhibitor, partial curve, poor fit]"}
{"smiles": "CCN(CC)S(=O)(=O)c1cccc(NC(=O)CNC2CCCCCC2)c1", "Potency": "inconclusive: 3.55 µM [inhibitor, single point]"}
{"smiles": "NC(=O)CC(NC(=O)Cc1ccc(Br)cc1)c1ccc(NCCc2ccccc2F)c([N+](=O)[O-])c1", "note": "(stereo not given)", "Potency": "inconclusive: 3.55 µM [inhibitor, full curve]"}
{"smiles": "Cc1ccccc1-n1c(SCc2c(C)noc2C)nnc1-c1ccncc1", "activity, negative = inhibition": "inactive: -2.32%"}
{"smiles": "COc1ccc(OC)c(N2Cc3cc(C)c(C)cc3C2)c1", "Potency": "inconclusive: 39.8 µM [inhibitor, partial curve]"}
{"smiles": "Cc1cnc(CNc2ncncc2-c2ccccc2C(F)(F)F)cn1", "activity, negative = inhibition": "inactive: 6.99%"}
{"smiles": "CC(C)(C)c1ccc(C(=O)NCC(c2cccs2)S(=O)(=O)c2cccs2)cc1", "note": "(stereo not given)", "activity, negative = inhibition": "inactive: -5.16%"}
{"smiles": "O=[N+]([O-])c1cccc2c(N3CCCC3)ccnc12", "Potency": "inconclusive: 44.7 µM [inhibitor, single point]"}
{"smiles": "O=C(c1ccco1)N(Cc1cc2ccccc2[nH]c1=O)CC1CCCO1", "note": "(stereo not given)", "activity, negative = inhibition": "inactive: -8.73%"}
{"smiles": "O=C1N/C(=C/c2ccco2)C(=O)N1Cc1ccccc1F", "Potency": "inconclusive: 31.6 µM [inhibitor, single point]"}
{"smiles": "Cc1nn(C)c(C)c1N1C(=O)c2cccc3c(Br)ccc(c23)C1=O", "activity, negative = inhibition": "inactive: 9.01%"}
{"smiles": "O=C(Nc1ccc(N2CCOCC2)c2nonc12)C1CCCC1", "Potency": "inconclusive: 17.8 µM [inhibitor, partial curve]"}
{"smiles": "CC(C)CCn1nnnc1C(c1ccc(N(C)C)cc1)N1CCN(C(=O)c2ccco2)CC1", "note": "(stereo not given)", "Potency": "inconclusive: 28.2 µM [inhibitor, partial curve]"}
{"smiles": "COc1cc(C(=S)N2CCC(C)CC2)ccc1O", "Potency": "inconclusive: 35.5 µM [inhibitor, single point]"}
{"smiles": "COc1ccc(/C=N/NC(=O)c2ccncc2)cc1CN1CCCc2ccccc21", "Potency": "inconclusive: 25.1 µM [inhibitor, partial curve]"}
{"smiles": "Nc1nnc(-c2ccc(Cl)c(Cl)c2)s1", "Potency": "inconclusive: 39.8 µM [inhibitor, single point]"}
{"smiles": "CCCCC(=O)N1CCCC(c2nc3c(nnn3Cc3cc(C)ccc3C)c(=O)[nH]2)C1", "note": "(stereo not given)", "Potency": "inconclusive: 25.1 µM [inhibitor, partial curve]"}
{"smiles": "COc1cccc(NS(=O)(=O)c2ccc3[nH]cc(C(=O)NCCC(C)C)c(=O)c3c2)c1", "activity, negative = inhibition": "inactive: 2.13%"}
{"smiles": "CC(C)(C)C(=O)Nc1ccc2c(c1)-c1cc(NC(=O)C(C)(C)C)ccc1C2", "Potency": "inconclusive: 3.55 µM [inhibitor, full curve, poor fit]"}
{"smiles": "COc1ccc(C(=O)Nc2cc(S(=O)(=O)c3ccc(Cl)cc3)c(O)c(C)c2C)cc1", "activity, negative = inhibition": "inactive: 0.1%"}
{"smiles": "CCOc1ccc(OCC)c(NC(=O)C(NS(=O)(=O)c2cccs2)c2ccccc2)c1", "note": "(stereo not given)", "activity, negative = inhibition": "inactive: 3.57%"}
{"smiles": "CC(SC#N)C(=O)C12CC3CC(CC(C3)C1)C2", "note": "(stereo not given)", "Potency": "inconclusive: 35.5 µM [inhibitor, partial curve]"}
{"smiles": "N#Cc1c(-c2ccncc2)c2c([nH]c1=O)-c1ccccc1OC2", "activity, negative = inhibition": "inactive: 23.2%"}
{"smiles": "Cc1ccc2nc(-c3ccc(Br)o3)oc(=O)c2c1", "activity, negative = inhibition": "inactive: -13.7%"}
{"smiles": "Nc1c(C(=O)Nc2ccc(S(=O)(=O)N3CCCC3)cc2)sc2nc3cc4c(cc3cc12)CCC4", "Potency": "inconclusive: 4.47 µM [inhibitor, full curve]"}
{"smiles": "COc1ccc(NC(=O)Cn2ncc(Cl)c(Cl)c2=O)cc1S(=O)(=O)N1CCOCC1", "Potency": "inconclusive: 35.5 µM [inhibitor, single point]"}
{"smiles": "Cc1ccc(S(=O)(=O)NCc2ccc(C(=O)NCCN(Cc3ccccc3)C(C)C)cc2)cc1", "Potency": "inconclusive: 20 µM [inhibitor, partial curve, poor fit]"}
{"smiles": "COc1cccc(C2SCC(=O)N2c2ccc(Cl)cc2)c1OC", "note": "(stereo not given)", "activity, negative = inhibition": "inactive: 1.02%"}
{"smiles": "N#Cc1c(-n2ncnc2-c2ccccc2C(F)(F)F)sc2c1CCCCC2", "Potency": "inconclusive: 17.8 µM [inhibitor, partial curve]"}
{"smiles": "Cc1ccc(NCc2cccn2-c2nnc(N3CCC(C(=O)NCCC(C)C)CC3)s2)cc1", "Potency": "inconclusive: 10 µM [inhibitor, partial curve, poor fit]"}
